Consider one molecule from publication PMC5585049 (Journal of thrombosis and haemostasis : JTH, 2017).

This assay deals with human GPIb-IX complex (human, UniProt P07359 17-652). Kind of assay: ELISA. (In general: In an ELISA, binding on a coated surface is turned into a signal by an enzyme label.)

Usually EC50 stands for the midpoint of the concentration-response curve.

B1: shortA1 (recombinant human VWF […]) (domain or fragment)
chain: not shown
modifications: O-glycosylated (2 O-glycans, predominantly disialyl core 1); […] disulfide bond
Molecule B1 gave an EC50 of roughly 25 nM.
